Measurements taken from the supplement of paper PMC12217912.
The other results are listed elsewhere or left out. Sequences were assembled here from the parent chain. Inactive controls read about 0.05.

B1: TEV protease; numbered along this chain (parent)
chain: MGESLFKGPRDYNPISSSICHLTNESDGHTTSLYGIGFGPFIITNKHLFRRNNGTLVVQSLHGVFKVKDTTTLQQHLVDGRDMIIIRMPKDFPPFPQKLKFREPQREERICLVTTNFQTKSMSSMVSDTSCTFPSGDGIFWKHWIQTKDGQCGSPLVSTRDGFIVGIHSASNFTNTNNYFTSVPKNFMELLTNQEAQQWVSGWRLNADSVLWGGHKVFMVKPEEPFQPVKEATQL

Variants of: B1
Test: raw area under fraction-flipped curve 0-4 h after induction (AUC4h, not background-subtracted), DNA-recorder readout of cleavage of the substrate (dimensionless); higher = more cleavage of the substrate by the protease variant
Details: temperature: 34 °C; time window: 0-4 h after rhamnose induction
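Also: Bxb1 expression induced with 0.2% (w/v) L-rhamnose at OD600 near 0.5, cultures sampled hourly, flipped fraction per protease–substrate barcode pair counted by paired-end Illumina sequencing.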

Variant	area with substrate DNLYFQS	area with substrate HNLYFQS	area with substrate LNLYFQS	area with substrate TNLYFQS	area with substrate WNLYFQS	area with substrate FNLYFQS	area with substrate MNLYFQS	area with substrate INLYFQS	area with substrate NNLYFQS	area with substrate PNLYFQS
E195W	0.0555	0.056	0.0706	0.0716	0.0602					
A196C	0.09					0.0641	0.0662			
A196P	0.0486	0.0578		0.0381	0.0664	0.055		0.0349	0.0582	0.0715
Q197H	0.0621	0.064		0.0636	0.0609		0.06	0.0611	0.0763	0.0644
W199A	0.0672	0.0447	0.0683		0.0628		0.0406	0.0445		0.0566
W199K	0.0795	0.0682	0.0476	0.0654			0.0644			0.0717
S201M	0.103	0.0585	0.0614	0.0731						0.0652
S201T	0.0999	0.0649	0.0616	0.0243	0.0543	0.0691	0.0812			0.0649
W203F	0.0629	0.0573			0.0493		0.0677		0.076	0.073
W203Q	0.0674	0.0559			0.051	0.0623	0.0853			
L205P	0.0322	0.0397			0.0857				0.0599	0.0577
L205Q	0.0458		0.056				0.0588			0.0495
N206M	0.0754	0.0694		0.0596		0.0748			0.066	
N206Q	0.0617	0.0674	0.0405	0.065	0.0606				0.0641	0.0401
N206V	0.0644	0.0555	0.0532	0.0537	0.0528			0.071		
N206W	0.0698	0.0655	0.0578	0.0561	0.0516		0.0615	0.0588	0.0643	0.0581
S209Q	0.0686	0.0622	0.046	0.066	0.0548		0.0352	0.0477	0.115	
S209T	0.0893					0.0458				0.0545
V210A	0.0678	0.0527		0.0667	0.0551					0.0692
W212H	0.0823	0.0559						0.0604	0.05	0.0519
W212Y	0.0759		0.0647	0.0619		0.0644			0.068	0.0711

Variant	area with substrate DNLYFQS	area with substrate HNLYFQS	area with substrate LNLYFQS	area with substrate TNLYFQS	area with substrate WNLYFQS	area with substrate FNLYFQS	area with substrate MNLYFQS	area with substrate INLYFQS	area with substrate NNLYFQS	area with substrate PNLYFQS
G213E	0.0644		0.0651				0.0185	0.0709		0.054
G213I	0.0413	0.0596	0.0608			0.0549	0.0438	0.046	0.0517	0.057
G213P	0.0643				0.0485	0.0885	0.0369			
G214L	0.0634	0.0566	0.0579	0.0602						0.0634
G214T	0.0662								0.0509	
H215T	0.0594	0.058	0.0626		0.0575					
H215Y	0.0626			0.0827				0.0457		
V217M	0.0442	0.0564		0.0633	0.0336	0.0372	0.0515		0.0013	
F218E	0.0776	0.0776	0.062	0.0567	0.0548		0.0684	0.0597	0.0649	0.0745
F218Q	0.0604		0.047	0.0608	0.0615		0.0449	0.0699		0.0632
V220F	0.0818		0.0586	0.0559	0.0598		0.0717		0.0551	0.0774
V220K	0.0758	0.063	0.0741	0.112	0.0656	0.0559	0.0222	0.069	0.0823	0.101
K221P	0.0591		0.0552		0.0586		0.0559	0.0636		
E223P	0.0871	0.0537		0.083	0.0602	0.1				
F226P	0.0843		0.0543	0.0333	0.0575				0.0345	
Q227H	0.0668	0.0699	0.0675		0.0537		0.0659	0.0539		
P228T	0.0826	0.0786			0.0627					0.0665
E231D	0.0934		0.061		0.0647	0.0653	0.0612			0.06
E231K	0.0834		0.0759	0.0692	0.0873			0.0783	0.0389	0.0671
E231S	0.0697	0.0676	0.0539	0.065	0.0543				0.0796	0.0531

Same assay, conditions: temperature: 34 °C; time window: 0-4 h after rhamnose induction

Variant	area with substrate SNLYFQS	area with substrate YNLYFQS	area with substrate GNLYFQS	area with substrate KNLYFQS	area with substrate RNLYFQS	area with substrate VNLYFQS	area with substrate QNLYFQS
A196P	0.0662	0.0624					
Q197H	0.0615		0.0955				
W199A	0.076						
W199K		0.0671		0.0543	0.0605	0.0599	
S201M	0.0508	0.0567	0.0519	0.072	0.0505		
S201T				0.079		0.0107	
W203F		0.0696	0.0458	0.0663			
W203Q		0.0479	0.0446			0.0555	
L205P	0.0605			0.0562			
L205Q		0.0583	0.0664				
N206Q		0.063	0.0743	0.0627			
N206V	0.0684					0.0586	
N206W	0.0446				0.069		
S209Q	0.0801	0.0347	0.0621	0.0733		0.051	
V210A		0.0646					
W212H		0.0512					0.0541
W212Y				0.0401			
G213E				0.0564			

Variant	area with substrate SNLYFQS	area with substrate YNLYFQS	area with substrate GNLYFQS	area with substrate KNLYFQS	area with substrate RNLYFQS	area with substrate VNLYFQS	area with substrate QNLYFQS
G213I			0.0604			0.0594	
G213P			0.0658				
G214L	0.0741	0.054					
G214T	0.052					0.0898	
H215T	0.0649		0.0455				0.0505
H215Y	0.0711	0.0628		0.0705			0.0559
V217M	0.062		0.0639	0.0623			
F218E	0.079	0.0365	0.0524	0.0519		0.0625	
F218Q	0.0547	0.0523	0.0513			0.088	
V220F		0.0636	0.082			0.0605	
V220K		0.056		0.0659			
K221P				0.0507	0.0658	0.0514	
E223P		0.0547	0.0577		0.0528		0.0699
F226P	0.0687	0.04					
Q227H		0.0637				0.0619	
P228T	0.0578			0.0743			
E231K						0.0887	
E231S	0.0835		0.0635				
